Among all 2,800 compounds or so, fewer than 10 were called active. Calls come from the whole dose curve; as a rule, active = well fitted curve in the direction sought with a large enough effect; inconclusive = small, poorly fitted or top-dose-only effect, or another doubt; inactive = no such curve, though single readings can be large or run the other way. The list shows a part of the results.
molecular target: Metallo-beta-lactamase type 2 (Klebsiella pneumoniae) (UniProt C7C422); assay: qHTS to identify inhibitors of the New Delhi Metallo-beta-lactamase (NDM): Meropenem screen against the machine-based learning selections.; note: % of control where 0% means no effect; conditions: Purified NDM-1, meropenem hydrolysis, absorbance 300 nm; at 38.4 µM (top of the series) unless noted
UniProt C7C422, sequence (C7C422 whole entry, looked up): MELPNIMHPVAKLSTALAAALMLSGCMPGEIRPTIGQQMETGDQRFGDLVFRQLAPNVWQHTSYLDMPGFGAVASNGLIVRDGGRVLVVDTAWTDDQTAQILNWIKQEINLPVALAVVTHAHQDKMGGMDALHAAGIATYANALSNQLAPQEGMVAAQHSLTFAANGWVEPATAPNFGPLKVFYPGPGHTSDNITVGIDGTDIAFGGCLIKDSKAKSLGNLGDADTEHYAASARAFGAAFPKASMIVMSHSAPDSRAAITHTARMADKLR
Summary of the method: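 Hydrolysis by 2 nM NDM-1 was followed by absorbance after >30 min compound preincubation in HEPES pH 7.0 buffer with 1 uM Zn2SO4. For nitrocefin (16.7 uM, 15 min, 485 nm) and meropenem (50 uM, 30 min, 300 nm), each substrate ran on separate plates.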

Activity change, negative = inhibition, inactive:
C[S+](=O)([O-])CCn1ncc2cc(OCc3cccc(-c4cccc(O)c4)c3)ccc21 -1.67% [at 57.5 µM], COC(=O)[C@H](CC1CCCCC1)NC(=O)[C@H]1CN(C(=O)c2cccc(F)c2)CCN1C(C)=O -0.971%, CC(C)CC(=O)N1CCN(c2nnc3ccccn23)CC1 6.45%, CCCN1CC2(CCN(C(=O)c3ccc(C)nc3)CC2)CC1C(=O)O (stereo not given) 40.3%, O=C(Cc1ccccn1)N1CCC(N2CC3CCCN3C2=O)CC1 (stereo not given) 3.77% [at 57.5 µM], Cc1cc(C)c(CNC(=O)c2nc(-c3cccnc3)cc3[nH]ccc23)c(=O)[nH]1 3.82% [at 57.5 µM], CC(C)c1noc(-c2cccn3c(CNC(=O)c4cccc5[nH]ccc45)nnc23)n1 5.92%, COc1ccc(CNC(=O)C[C@@H]2CCNC[C@@H]2Cc2cc(COc3ccccc3)on2)cc1 -2.5%, COc1ccccc1CNC(=O)C[C@@H]1[C@H](O)CCC2[C@](C)(CO)[C@H](OC(=O)NC(C)C)CC[C@]21C (stereo not given in full) -0.427%, NC(=O)CCNC(=O)C1=C[C@@H](NC(=O)c2cccs2)[C@@H](O)[C@H](O)C1 7.02% [at 57.5 µM], O=C(c1ccccc1-c1ncn[nH]1)N1CCn2nc(Cc3ccccc3)cc2C1 0.0583%, O=S(=O)(NC[C@H]1O[C@@H](CO)[C@@H](O)[C@H]1N1CCOCC1)c1ccccc1 41.4% [at 57.5 µM], COc1ccc(-c2noc([C@@H]3C[C@@H](O)CN3Cc3ncc[nH]3)n2)cc1 -1.76% [at 57.5 µM], OCc1cccc(-c2ccc3ncc(Nc4ccccc4F)n3n2)c1 23.6% [at 57.5 µM], Cc1nc(C(=O)N2CCC(c3nnc(CN4CCCC4)n3C)CC2)cs1 -3.72%, O=c1c2nc(-c3ccc(O)c(F)c3)ccc2ncn1Cc1ccccn1 17.4% [at 57.5 µM], CCc1nc(NCCc2cc(OC)cc(OC)c2)c2cnn(C)c2n1 3.47%, O=C(C[C@@H]1O[C@H](CNC(=O)c2ccccc2)[C@@H](O)[C@H]1O)NC1CC1 45% [at 57.5 µM], F[C@@H]1CN(Cc2cccnc2)C[C@@H]1OCc1nc2ccc(C(F)(F)F)cc2[nH]1 -0.315% [at 57.5 µM], c1cncc(Nc2cc3c(cn2)CN(Cc2ccc4[nH]ccc4c2)CCN3)c1 1.18% [at 57.5 µM], O=C(NCCc1ccccc1)C1CC(=O)N(c2n[nH]c3cccc(F)c23)C1 (stereo not given) -0.342%, COCCNC(=O)C[C@@H]1C[C@H]2O[C@H](CNC3CCCCC3)[C@@H](O)[C@H]2O1 0.285% [at 57.5 µM], Cc1ccccc1C(=O)N1CCCN(c2cc(-c3ccc(Cl)cc3)[nH]n2)CC1 0.174%, CC(C)c1nnc(C2CN(C(=O)c3ccc(F)c(F)c3)CC23CCOCC3)o1 (stereo not given) -0.968%, CN[C@@H](CC(C)C)C(=O)N[C@H]1C[C@@](O)(C(=O)N[C@H](Cc2c[nH]c3ccccc23)C(N)=O)C[C@@H](O)[C@@H]1O -0.384%, CC1(CNC(=O)c2ccc3c(c2)OCO3)CCOCC1 3.36%, O=C(OCc1ccccc1)N1CCC2(C1)C(=NC1CCCC1)NC(=O)N2c1cccnc1 (stereo not given) 1.78%, O=C(Cc1noc2ccccc12)N[C@@H]1COCC[C@@H]1OCc1ccccn1 -1.28%, Cc1nn(Cc2ccccc2)c(C)c1[C@@H]1C=C[C@@H](NC(=O)NC2CCCCC2)C1 13.4% [at 57.5 µM], C=CCn1cc2c3c(cccc31)[C@H](CC(C)C)N[C@H](C(=O)N1CCOCC1)C2 2.17% [at 57.5 µM], N#Cc1cccc(CN2CCC[C@H]2c2nc(-c3ccc(OC4CCCCC4)nc3)no2)c1 0.944% [at 57.5 µM], Cc1ccsc1-c1[nH]nc2ncc(-c3ccc(CO)cc3)nc12 5.24% [at 57.5 µM], COc1ccc(C(=O)N[C@H]2CO[C@H]3[C@@H]2OC[C@@H]3n2nnnc2-c2cccc(OC)c2)cc1 1.7%, Cc1ccc(-c2cc(O)c3c(c2)CNCCO3)cc1 0.171%, O[C@@H]1C[C@@H](c2nnc3n2CCN(Cc2ccccc2)C3)N(Cc2ccccc2)C1 4.37%, OC(c1cccc(C(F)(F)F)c1)c1nc(Nc2ccncc2)n[nH]1 (stereo not given) 3.37% [at 57.5 µM], O=C(Cc1c[nH]c2ncc(-c3cccnc3)cc12)NCCc1ccccc1 19.1% [at 57.5 µM], COc1cccc(Nc2cc3c(cn2)CN(Cc2ccncc2)CCN3)c1 7.92% [at 57.5 µM], CC(C)C(=O)Nc1ccc([C@H]2OCC(=O)N(Cc3ccccc3)[C@@H]2CO)cc1 -1.78% [at 57.5 µM], CCNc1ncc(C(=O)NC2CC(c3nnc(CO)n3CC)C2)cn1 (stereo not given) 4.73%, CC1(C(=O)NCCc2ccccn2)CCc2cnc(NCc3ccccc3)nc21 (stereo not given) 1.18% [at 57.5 µM], CC(C)(O)CCc1ccc(C(=O)NCCSc2ccccn2)cc1 -0.658%, O=C(Cc1ccccc1Cl)N1CCC(Cc2nc(-c3ccc(F)cc3)no2)CC1 -1.26%, COc1ccc(C(=O)N2CCC(c3nn(-c4ccccc4)c(=O)[nH]3)CC2)cc1 -0.198%, CCn1ccc(C(=O)N2CC(c3nnc(-c4ccc(C)cc4)o3)C3(CCOCC3)C2)n1 (stereo not given) -0.487%, CC(C)NCC1(COc2ccc(C(F)(F)F)cn2)C[C@@H](O)[C@@H](O)C1 (stereo not given in full) 34.9% [at 57.5 µM], Cc1nnnn1CC(=O)NCc1cccnc1N(C)CCc1ccccn1 1.5%, COCCNC(=O)c1ccc(OC2CCN(S(C)(=O)=O)CC2)c(Cl)c1 0.731%, C=CCN1CC2(CCC1=O)CCN(CC1CCCS(=O)(=O)C1)CC2 (stereo not given) -0.0853%, COc1ccc(C(=O)N2CC[C@@H](CC(=O)O)[C@@H](CCN3C[C@@H]4C[C@H](C3)c3cccc(=O)n3C4)C2)cc1 -0.0975%, NC(=O)c1cccc(-c2n[nH]c3c2CC(=O)N(CC2CCOCC2)C3)c1 5.77% [at 57.5 µM], COc1ccccc1-c1cnc(Nc2cccc(N[S+](C)(=O)[O-])c2)c2c1CCO2 5.26% [at 57.5 µM], COc1ccc(NC(=O)O[C@@H]2CC[C@]3(C)C(CC[C@@H](O)[C@H]3CC(=O)NCc3ccc4c(c3)OCO4)[C@]2(C)CO)cc1 (stereo not given in full) 3.41%, O=c1cc(-c2ccccn2)oc2c(NCc3ccccc3)nccc12 11.4% [at 57.5 µM], OCC1(Cc2ccc(F)cc2F)CCCN(c2cnc3ccccc3n2)C1 (stereo not given) 0.21%, C[C@H]1[C@@H]2[C@@H](O)[C@H]([C@H](C)C(=O)N3CCCC3)CC[C@@]2(C)CC[C@@H]1NC(=O)CC(C)(C)C 0.93% [at 57.5 µM], CCOC(=O)C[C@@H]1C[C@@H](C(C)C)[C@H](CNC(=O)c2ccc(C#N)cc2)C=C1C 0.39% [at 57.5 µM], OC[C@]12CCCN[C@@H]1CCN(Cc1cccc(-c3ccccn3)c1)C2 1.81%, CN1[C@@H](CCC(=O)N2CCN(c3ccccc3)CC2)CNC(=O)[C@@H]2[C@H]1CCN2Cc1cccc(Cl)c1 0.159%, COc1cccc(CN2C[C@@H]3C(C(=O)O)[C@@H]3C2)c1OCCn1ccnc1 (stereo not given in full) 37.8%, C[C@@H](NC(=O)Cc1ccccc1)c1onc(-c2ccc(Cl)cc2)c1C(=O)O -1.91% [at 57.5 µM], CC(C)c1noc(CN(C)C(=O)CC2C(=O)NCCN2Cc2ccoc2)n1 (stereo not given) 0.77%, CC(C)NC(=O)CCc1cc2n(n1)CCN(Cc1cc(=O)[nH]c(=O)[nH]1)C2 45.7%, CCC(=O)N(C1CCOCC1)C1CCN(S(=O)(=O)c2ccc(C)cc2C)CC1 0.609%, CC[C@H]1CN(C(=O)C(C)(C)C)CC[C@H]1CC(=O)NCc1cccnc1 -1.05% [at 57.5 µM], Fc1ccc(CN2CC[C@H](c3nc4cc(Cl)ccc4o3)C2)cc1F -2.33% [at 57.5 µM], O=C(Nc1cccs1)O[C@H]1COCCN(c2nc3ccccc3o2)C1 1.17% [at 57.5 µM], CCN(Cc1nc(C)no1)C(=O)c1cc(COc2ccccc2F)[nH]n1 -0.0289%, Cc1noc(C)c1CCC(=O)N1CCN(Cc2ccccc2)CC(O)C1 (stereo not given) 3.03%, COCCNS(=O)(=O)c1cc(C(=O)O)cc(-c2ccc(OC)c(F)c2)c1 7.31%, COc1ccc(Cl)cc1-c1ccc2c(c1)C(=O)N1CCN(C(=O)c3ccc(N(C)C)cc3)C[C@@H]1C(=O)N2 2.11%, CN(Cc1ccccc1)Cc1cc(CC2(NCc3cccs3)COC2)no1 0.865% [at 57.5 µM], CC1CCC(NC(=O)C2CCN(C(=O)c3ncn4c3COC(c3ccc(Cl)cc3)C4)CC2)CC1 (stereo not given) 1.45%, COCCN1CCCC2(CCN(C(=O)c3ccccc3)C2)C1 (stereo not given) 1.01%, Cc1nn(CCC#N)c(C)c1[C@@H]1C=C[C@@H](NC(=O)Nc2ccc(Cl)cc2)C1 0.866% [at 57.5 µM]
